# Results taken from ChEMBL document CHEMBL5308541, “MAIP: An Open-Source Tool to Enrich High-Throughput Screening Output and Identify Novel, Druglike Molecules with Antimalarial Activity” (ACS Med Chem Lett, 2023).
# Among all 150,000 compounds or so, about 540 (0.36%) showed an effect of 50% or more. This is one part of the list.
# Test system: Plasmodium falciparum
# Test: Primary screen in NF54 nanoGlo assay, in single point, at 2uM, 72h; a lower Z score goes with more inhibition
# Type: functional, Erythrocyte
# Conditions: timepoint 72 hour
SMILES,% Inhibition [%],Z score
CN1CCN(CCNC(=O)C2CCN(Cc3cc4ccccc4n3Cc3cccc(F)c3)CC2)CC1,18,-3.13
O=C(c1ccc(N2CCC(NCC3(N4CCOCC4)CCCC3)CC2)cc1)N1CCC[C@H](O)C1,1,-0.11
c1nc(NC2COCC2N2CCCC2)c2ccsc2n1 (centres undefined),7,-1.61
c1ncc(N2CCN([C@H]3CCNC3)CC2)nc1OC1CCCCC1,4,-0.81
O=C(Nc1ccc(F)cc1)N[C@H]1CCN(c2cc(C(F)(F)F)nc(-c3ccncc3)n2)C1,-4,0.63
CN1CCC(N2CCC[C@H]2C(=O)Nc2ccc(-c3cccc(F)c3)cc2)CC1,-6,1.03
Clc1ccc2nccc(N3CCC(OC4CCOCC4)CC3)c2c1,-1,0.22
O=C(NCCCN1CCOCC1)[C@H](C1CCCC1)N1CCN(C(=O)c2ccc(Cl)c(Cl)c2)CC1,1,-0.26
CCc1c(C)nc(N)nc1NCCN(CC)CC,-3,0.53
Cn1cccc1-c1cc(C(=O)NC2CCN(Cc3cccs3)CC2)n[nH]1,-1,0.1
c1ccc(CNc2ncnc3c2c(-c2ccccc2)c(-c2ccccc2)n3Cc2ccccc2)cc1,2,-0.37
CCN(C(C)=O)c1nc(C=Cc2nccc(-c3cnn(C)c3)n2)cs1,2,-0.26
COCCOCC(=O)Nc1ccc(-c2nc3cc(F)ccc3[nH]2)cc1,-6,1.18
C[C@@H](c1cccc(CN2CCN(CCN3CCOCC3)CC2)c1)N(C)C,9,-1.53
CC(C)(C)NC(=O)CN1CCC(CNc2ncnc3c(F)cccc23)CC1,-1,0.22
Cc1cc(N2CCC(NC(=O)c3ccccc3-c3ncc(-c4ccccc4)o3)CC2)ncn1,-29,5.1
COc1cc(NC2CCN([C@H]3CCOC3)CC2)cc2cccnc12,13,-2.52
CCOc1cc(-c2c(-c3ccccc3)ncn2Cc2cccnc2)ccc1O,1,-0.17
O=C(Nc1ccc(-n2cnc3ccccc32)cc1)N1CC2CCC1CNC2 (centres undefined),0,-0.02
Cc1noc(-c2ccc(S(=O)(=O)NC3CCS(=O)(=O)CC3)o2)c1C,-8,1.17
COC[C@@H](O)CN1CCC(Nc2c(C#N)cnc3ccc(OC(F)F)cc23)CC1,-7,1.3
OC1CCC(CNC2CCN(C3CCCCC3)CC2)C1 (centres undefined),0,-0.06
O=C1CCCc2cc(C(=O)N3CC(O)C(Cc4ccccc4)C3)ccc21 (centres undefined),-6,1
CN(C(=O)c1cc2occc2[nH]1)C1CC2CCC(C1)N2C(=O)OC(C)(C)C (centres undefined),-5,0.91
O=C(c1ccc2ncsc2c1)N1CC(c2nc(-c3ccncc3)no2)C1,-14,2.78
Cc1c(CN(C)C(=O)NCCN2CCC(CO)CC2)[nH]c2ccccc12,-7,1.36

SMILES,% Inhibition [%],Z score
CN(C)C[C@H](O)CN1CCN(Cc2ccc(-c3ccccc3C#N)o2)CC1,2,-0.46
COc1c(F)c(F)cc(C(=O)N2CCC(N3CC(=O)N(C)C3=O)CC2)c1F,2,-0.31
COc1ccccc1Nc1nnc(-c2ccc(OC(C)C)c(OC)c2)o1,-7,1.19
c1ccc(Oc2cccc(CNCCc3nc4ccccc4[nH]3)c2)cc1,-7,1.19
O=C(Cc1csc(-c2cccc(F)c2)n1)NC[C@H](c1ccccc1)c1c[nH]c2ccccc12,-6,1.11
c1cc(NC2CCN(c3cnccn3)CC2)cc(-c2ccn[nH]2)c1,6,-1
CN1CCN(C[C@H]2CCCN(C(=O)CCCN3CCCC3)C2)CC1,2,-0.38
O=C(c1ccncc1)N1CCC(NCCN2CCCC[C@@H]2CO)CC1,-16,2.77
O=C1NC2(CCN(Cc3ccc4[nH]ccc4c3)CC2)C[C@@H]1c1ccccc1,7,-1.28
O=c1nc2c3ccccc3nc(Nc3ccccc3)n2nc1-c1ccc(F)cc1,-10,1.59
CCCN(CC)c1ccc(C(=O)NCc2cc[nH]n2)cc1,-16,2.75
CC(O)c1cc(NC[C@H](O)c2ccc(Cl)c(Cl)c2)ccc1F (some centres undefined),-2,0.4
Cc1cc(Cl)ccc1OCCN1CCN(Cc2cc(-c3ccncc3)no2)CC1,-3,0.62
Cc1nn(CC(N)=O)c(C)c1-c1cc(NC2CCCC2)nc2[nH]ccc12,4,-0.77
COC(=O)N[C@H](C(=O)Nc1cc(CCc2ccccc2C)n[nH]1)C(C)C,-4,0.65
COc1cc(-c2cc(C(=O)N3CCC(N4CC[C@H](OC)C4)CC3)n[nH]2)cc(OC)c1OC,-2,0.28
OCC1CCN(Cc2ccccc2NCc2noc(-c3ccsc3)n2)CC1,-10,1.77
Cc1ccc2[nH]c(CCNC3CCN(C)CC3)nc2c1C,7,-1.19
CC(C)Cn1cncc1CNc1ncnc2[nH]ccc12,0,-0.01
COc1cc2c(NCCCN3CC(C)OC(C)C3)ncnc2cc1F (centres undefined),2,-0.27
Cc1ccc2cccc(C(=O)N[C@H]3CCN(C4CCN(C)CC4)C3)c2n1,-13,2.27
COCC12CCC(N3CCOCC3)CC1CCN(Cc1ccc3[nH]ccc3c1)C2 (centres undefined),7,-1.16
FC(F)(F)CN1CC[C@H](NCc2cccc3[nH]ccc23)C1,0,0.08
O=S1(=O)CCC(O)(CN2CCC[C@H](CN3CCCCCC3)C2)CC1,-7,1.3
COc1cccc(C(C(=O)O)N2CCC(O)(Cc3ccc(F)cc3)C2)c1 (centres undefined),6,-0.89
Clc1cnc(NCCN2CCN(c3ccccc3)CC2)nc1,3,-0.49
